# Like-named read-outs stand apart in the source and are kept apart here.
# Legend:
# [1] = tested on: Candida albicans (isolate #77); settings: clinical isolate #77; 1 hour 37° C. in 10 mM NaCl/50 mM MOPS, pH 7.2, then YPD 24 hours 30° C.
# [2] = tested on: Candida albicans (isolate #4); settings: clinical isolate #4; 1 hour 37° C. in 10 mM NaCl/50 mM MOPS, pH 7.2, then YPD 24 hours 30° C.
# [3] = tested on: Candida albicans (isolate #5); settings: clinical isolate #5; 1 hour 37° C. in 10 mM NaCl/50 mM MOPS, pH 7.2, then YPD 24 hours 30° C.
# [4] = tested on: Candida albicans (isolate #28); test: microbe, parasite or virus in culture; settings: pH 7.2
# [5] = tested on: Candida albicans (isolate #99); test: microbe, parasite or virus in culture; settings: pH 7.2
# [6] = tested on: Candida albicans (isolate #11); test: microbe, parasite or virus in culture; settings: pH 7.2
# [7] = tested on: Candida albicans (isolate #4); test: microbe, parasite or virus in culture; settings: pH 7.2
# [8] = tested on: Candida albicans (isolate #98); test: microbe, parasite or virus in culture; settings: pH 7.2
# [9] = tested on: Candida albicans (isolate #77); test: microbe, parasite or virus in culture; settings: pH 7.2
# [10] = tested on: Candida albicans (isolate #5); test: microbe, parasite or virus in culture; settings: pH 7.2
# phosphorylated ERK 1, 2 = settings: 50 μM, primary human foreskin epithelial cells
# [11] = tested on: Primary human neonatal foreskin epithelial cells; settings: 50 μM, 18 and 36 hours
SMILES,MIC [1],MIC [2],MIC [3],MIC [4],MIC [5],MIC [6],MIC [7],MIC [8],MIC [9],MIC [10],"ERK 1, 2 activation compared to control (phosphorylated ERK 1, 2)",cell morphology after treatment [11]
C[C@H](NC(=O)[C@H](Cc1c[nH]cn1)NC(=O)[C@H](CO)NC(=O)[C@@H](N)CC(=O)O)C(=O)N[C@@H](CCCCN)C(=O)N[C@@H](CCCNC(=N)N)C(=O)N[C@@H](Cc1c[nH]cn1)C(=O)N[C@@H](Cc1c[nH]cn1)C(=O)NCC(=O)N[C@@H](Cc1ccc(O)cc1)C(=O)N[C@@H](CCCCN)C(=O)N[C@@H](CCCNC(=N)N)C(=O)N[C@@H](CCCCN)C(=O)N[C@@H](Cc1ccccc1)C(=O)N[C@@H](Cc1c[nH]cn1)C(=O)N[C@@H](CCC(=O)O)C(=O)N[C@@H](CCCCN)C(=O)N[C@@H](Cc1c[nH]cn1)C(=O)N[C@@H](Cc1c[nH]cn1)C(=O)N[C@@H](CO)C(=O)N[C@@H](Cc1c[nH]cn1)C(=O)N[C@@H](CCCNC(=N)N)C(=O)NCC(=O)N[C@@H](Cc1ccc(O)cc1)C(=O)O [H5],>350 µM,>350 µM,>350 µM,–,–,–,–,–,–,–,–,–
"OC(Cn1cncn1)(Cn1cncn1)c1ccc(F)cc1F [FLU, Fluconazole]",–,–,–,≥ 97.9 µM,≥ 97.9 µM,≥ 97.9 µM,≥ 97.9 µM,≥ 97.9 µM,≥ 97.9 µM,≥ 97.9 µM,–,–
"C[C@@H]1[C@H](O)[C@@H](C)/C=C/C=C/C=C/C=C/C=C/C=C/C=C/[C@H](O[C@@H]2O[C@H](C)[C@@H](O)[C@H](N)[C@@H]2O)C[C@@H]2O[C@](O)(C[C@@H](O)C[C@@H](O)[C@H](O)CC[C@@H](O)C[C@@H](O)CC(=O)O[C@H]1C)C[C@H](O)[C@H]2C(=O)O [AMP-b, Amphoteracin-h]",–,4.5 µM,3.2 µM,–,–,–,–,–,–,–,–,–
"CC(=O)N1CCN(c2ccc(OCC3COC(Cn4ccnc4)(c4ccc(Cl)cc4Cl)O3)cc2)CC1 (stereo not drawn) [KETO, Ketoconazole]",–,–,–,≥ 9.41 µM,–,3.4 µM,≥ 9.41 µM,6.2 µM,≥ 9.41 µM,≥ 9.41 µM,"Significant inhibition of ERK 1, 2 activation",morphologically normal except when treated with ketoconazole
"CCC(C)n1ncn(-c2ccc(N3CCN(c4ccc(OCC5COC(Cn6cncn6)(c6ccc(Cl)cc6Cl)O5)cc4)CC3)cc2)c1=O (stereo not drawn) [ITRA, Itraconazole]",–,–,–,≥ 7.09 µM,≥ 7.09 µM,5.5 µM,≥ 7.09 µM,≥ 7.09 µM,≥ 7.09 µM,≥ 7.09 µM,–,–

# From patent publication US20100173833A1, “METHODS AND COMPOSITION FOR USE OF CYCLIC ANALOGUES OF HISTATIN” (priority 2007, published 2010)
